Data published in the supplement of paper PMC4166925.
± gives the standard deviation of the averaged measurements. In all, about 33,000 sequences were measured (“E-score (dimensionless, -0.5 to 0.5)”: median about -0.049, highest 2% from about 0.37 on). The list shows a part of the results.

Tested on: T1, PmTbr T-box DNA-binding domain (GST fusion)
T1 sequence: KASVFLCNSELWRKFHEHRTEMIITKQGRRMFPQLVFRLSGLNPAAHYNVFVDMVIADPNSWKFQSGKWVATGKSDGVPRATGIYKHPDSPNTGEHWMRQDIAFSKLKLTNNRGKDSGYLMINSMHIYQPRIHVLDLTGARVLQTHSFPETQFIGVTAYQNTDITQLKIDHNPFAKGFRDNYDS
Assay: PBM E-score of 8-mer (E-score (dimensionless, -0.5 to 0.5)); Tbr is Tbrain of the sea star Patiria miniata (Pm) or the sea urchin Strongylocentrotus purpuratus (Sp); higher = stronger binding preference; most listed sequences are background and not binding sites
Settings: the construct has about 5 more residues each side
How it was run: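 Each ungapped 8-mer received an enrichment E-score from the Universal PBM Analysis Suite, averaged over duplicate arrays. The proteins were Tbr T-box DNA-binding domains, covering the whole T-box plus about five flanking residues, fused to GST and expressed in BL21 E. coli at 20 °C before glutathione affinity purification. Universal Agilent oligonucleotide arrays were made double-stranded by primer extension and incubated with 200 nM protein in PBS (pH 7.5). The arrays were then scanned and quantified, and every 8-mer was scored from probe intensities.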

Row | Sequence | PBM E-score of 8-mer
1 | CGTGTAAG | 0.0567 ± 0.055
2 | TATGACCA | -0.0597 ± 0.049
3 | GCTCGTCA | 0.00998 ± 0.053
4 | GGCTAACC | -0.0286 ± 0.053
5 | CTAATGTA | -0.242 ± 0.039
6 | GAAGAAAC | -0.177 ± 0.024
7 | AAACTAAA | -0.174 ± 0.086
8 | ACAGCTAC | 0.115 ± 0.032
9 | GTAGGTAA | -0.141 ± 0.024
10 | TAACCACA | 0.105 ± 0.028
11 | ATAACGCA | 0.0162 ± 0.034
12 | CCGGAAAG | -0.184 ± 0.016
13 | TGTAAACA | 0.15 ± 0.029
14 | CATCGCTA | 0.157 ± 0.0021
15 | CGGGAAAG | -0.0396 ± 0.06
16 | ACGGTCAT | 0.00306 ± 0.057
17 | CTCTGACC | -0.243 ± 0.018
18 | CTTCTGTC | -0.0727 ± 0.057
19 | CGCATTTC | -0.103 ± 0.14
20 | ACATGTAC | -0.0175 ± 0.042
21 | ACCCATGA | -0.0699 ± 0.0078
22 | ACCCCCGA | -0.0696 ± 0.058
23 | GCATACCA | -0.0714 ± 0.0053
24 | TGGATCAA | -0.0192 ± 0.0014
25 | ACGGATGC | -0.133 ± 0.037

Row | Sequence | PBM E-score of 8-mer
26 | CCAAATCA | 0.153 ± 0.063
27 | CACGGAGC | -0.0154 ± 0.019
28 | GGACGTAA | -0.214 ± 0.024
29 | GGGAACTA | -0.076 ± 0.067
30 | GATGAAGA | -0.134 ± 0.051
31 | GGCTCCAA | -0.1339 ± 0.00023
32 | AGAGTGGC | 0.0876 ± 0.017
33 | GAGCCCGC | 0.051 ± 0.0011
34 | ATCGCATC | 0.0618 ± 0.032
35 | AGTCTGTA | -0.0833 ± 0.076
36 | ATAGACCC | -0.272 ± 0.003
37 | CAGTCGAC | 0.0406 ± 0.057
38 | ACAACTAC | 0.08361 ± 0.0003
39 | GTAGTAAA | -0.137 ± 0.0077
40 | GGGGCCTA | -0.0886 ± 0.09
41 | CTATCAAG | -0.14 ± 0.049
42 | GTCTTCAC | 0.234 ± 0.013
43 | GTCTTCCA | -0.193 ± 0.014
44 | ACATAATG | 0.0544 ± 0.014
45 | ATAATTAC | -0.0232 ± 0.018
46 | ACGATAAT | -0.139 ± 0.11
47 | GCACGTAA | -0.0394 ± 0.038
48 | ATCCGCAG | -0.171 ± 0.0028
49 | CGCTATAG | -0.0732 ± 0.033
50 | AAGGACAG | -0.208 ± 0.028

Row | Sequence | PBM E-score of 8-mer
51 | GTTAGGTA | -0.00675 ± 0.069
52 | ATATCGTA | -0.136 ± 0.063
53 | CTGCGAAC | 0.324 ± 0.013
54 | AGATATAC | -0.123 ± 0.01
55 | AATGGAGG | 0.0939 ± 0.018
56 | ATAGAGCC | -0.165 ± 0.019
57 | ACAGGAGG | -0.123 ± 0.023
58 | GCGACGGA | 0.0845 ± 0.023
59 | GGCAGGTA | -0.0237 ± 0.036
60 | CCAAGGTA | -0.0802 ± 0.049
61 | AAAGACTC | -0.156 ± 0.018
62 | ATATTAGA | -0.129 ± 0.079
63 | GTGTTAAA | 0.429 ± 0.021
64 | CCATGCCG | 0.0918 ± 0.063
65 | AAAGGAGA | 0.0694 ± 0.069
66 | ACCGGCTA | -0.11 ± 0.063
67 | GCTTGACC | -0.317 ± 0.045
68 | GGAAGCGA | -0.0878 ± 0.0094
69 | AAGGATAA | -0.0508 ± 0.026
70 | AGAAACGC | 0.0541 ± 0.04
71 | ATGTCCGG | -0.174 ± 0.071
72 | CGTCGTCA | 0.232 ± 0.012
73 | TCGAACCA | -0.0751 ± 0.11
74 | GCTCGTAC | -0.138 ± 0.023
75 | GGCGGTTA | -0.254 ± 0.084

Row | Sequence | PBM E-score of 8-mer
76 | ACCGATTC | -0.224 ± 0.066
77 | GCAAGAGA | -0.124 ± 0.037
78 | AGTCAGGC | -0.332 ± 0.017
79 | GAATCATC | -0.0201 ± 0.021
80 | CATCTGAA | -0.015 ± 0.048
81 | CGAAACTC | 0.00966 ± 0.025
82 | ATAGACTG | -0.0183 ± 0.043
83 | AGCAGGAA | -0.139 ± 0.021
84 | CCGGAACG | -0.159 ± 0.039
85 | AAGGATCT | -0.189 ± 0.037
86 | CTGTGATA | 0.2528 ± 0.0022
87 | ATCCGAAT | -0.36 ± 0.007
88 | ACCTCTAA | -0.0425 ± 0.028
89 | AGGCTGGG | -0.18 ± 0.069
90 | AATACATG | -0.152 ± 0.094
91 | CGATATTC | 0.0118 ± 0.021
92 | ACGACCAG | -0.0759 ± 0.043
93 | TGTATTAA | -0.0716 ± 0.098
94 | CTGTGGTC | -0.178 ± 0.13
95 | AGCATTAA | -0.0919 ± 0.027
96 | ACGCGCGC | 0.157 ± 0.033
97 | AAACCCCA | -0.268 ± 0.039
98 | CTATCAGA | -0.102 ± 0.0099
99 | GAGTCAAA | -0.15 ± 0.029
100 | AGCTAAGA | 0.0667 ± 0.1

Row | Sequence | PBM E-score of 8-mer
101 | GCCGACCC | -0.256 ± 0.038
102 | ACTGTTGC | 0.0455 ± 0.0063
103 | ACGTCATC | 0.115 ± 0.019
104 | CATTCTCG | 0.171 ± 0.048
105 | CCATGGGC | -0.149 ± 0.018
106 | ATTGATAC | 0.0782 ± 0.11
107 | CACATAAA | 0.117 ± 0.014
108 | CAACACTC | 0.339 ± 0.0075
109 | GGTGTGAC | 0.4864 ± 0.0033
110 | GCCGTGTA | -0.112 ± 0.015
111 | CGCCCATA | -0.0434 ± 0.00045
112 | TAGTCAGA | -0.0794 ± 0.018
113 | TTGCCCAA | -0.191 ± 0.041
114 | GTCGAGAC | -0.137 ± 0.02
115 | CGAGCGAA | -0.0807 ± 0.16
116 | CGTCGTAG | -0.15 ± 0.043
117 | CTGAACTA | -0.226 ± 0.054
118 | CCTTGACC | -0.13 ± 0.041
119 | GGCGAGAA | 0.339 ± 0.005
120 | AGTCCGTG | -0.179 ± 0.026
121 | GAGGGTCC | -0.34186 ± 2.1e-05
122 | AACTCATG | -0.206 ± 0.012
123 | ACGGCACG | 0.0779 ± 0.012
124 | CGTATGTA | -0.0635 ± 0.046
125 | TACTCACA | 0.264 ± 0.0045

Row | Sequence | PBM E-score of 8-mer
126 | AATTGCAG | 0.0429 ± 0.013
127 | ACCCAGCC | -0.112 ± 0.11
128 | CATGATCC | -0.109 ± 0.054
129 | GCGCCGAA | 0.151 ± 0.0066
130 | GGCGGTCA | -0.206 ± 0.086
131 | TAGTTAAA | -0.253 ± 0.0031
132 | CCTACCTA | -0.162 ± 0.092
133 | AAAGCCGA | -0.0961 ± 0.0053
134 | CCGTGGGA | -0.179 ± 0.082
135 | CAGAGCCC | -0.118 ± 0.077
136 | AGATGTTA | 0.0329 ± 0.035
137 | TGAATTCA | 0.00624 ± 0.11
138 | AAAAAGTT | 0.111 ± 0.092
139 | GGACATCA | -0.0324 ± 0.05
140 | CAGATACG | -0.0625 ± 0.037
141 | AAACGCCT | 0.1217 ± 0.0004
142 | AGATATGA | -0.00711 ± 0.082
143 | GATCGTGA | 0.164 ± 0.0057
144 | CCACGTCA | 0.0883 ± 0.058
145 | CGCTCAGC | -0.213 ± 0.0023
146 | CGAGTGAA | 0.0674 ± 0.029
147 | CGTCTGCA | 0.025 ± 0.029
148 | GAAATGTA | -0.116 ± 0.024
149 | ATCTAGAC | -0.205 ± 0.0034
150 | CTCGAAGA | -0.159 ± 0.046

Row | Sequence | PBM E-score of 8-mer
151 | GACTTCCA | -0.2 ± 0.014
152 | CATCTCAA | -0.156 ± 0.035
153 | GTCTGAGA | -0.0929 ± 0.061
154 | AAATCTCA | 0.161 ± 0.034
155 | TGACCGCA | -0.192 ± 0.044
156 | CAGAATAC | -0.145 ± 0.0078
157 | CCCCGCAC | 0.168 ± 0.038
158 | AATGTAAC | 0.0157 ± 0.11
159 | AGCAAATC | 0.00607 ± 0.054
160 | GGAGAGGA | -0.1 ± 0.0036
161 | GAGGGTTA | -0.0685 ± 0.061
162 | TAAATGTA | -0.114 ± 0.0084
163 | AGGGTCAC | 0.0889 ± 0.0067
164 | CCAATCCG | -0.0014 ± 0.016
165 | AATGTGCG | 0.27 ± 0.012
166 | ACAAAGGC | -0.106 ± 0.089
167 | AGAACATC | -0.098 ± 0.021
168 | GGCACTGA | -0.0347 ± 0.026
169 | AGCTTCTG | -0.218 ± 0.059
170 | CTAACTTC | -0.194 ± 0.036
171 | AACGTGCC | 0.14 ± 0.005
172 | GCTTCAAA | 0.0832 ± 0.024
